Over roughly 18,000 sequences, “TetR repression strength (sort-seq, GFP reporter)” has its median near 0.23; the highest 2% begin near 0.68. This is one part of the list.

The assay addresses TetR (class B, Tn10) (UniProt P04483). As to the kind of experiment: TetR repression strength (sort-seq, GFP reporter) (relative to tetO2 = 1); higher = stronger repression. As to conditions: E. coli. The method in brief: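 Three independent transformations of E. coli SIG10-MAX were made with a low-copy plasmid library randomizing eight operator positions between a constitutive promoter and sfGFP, with constitutive TetR. Following 5 h at 37 °C in LB plus 50 µg/mL chloramphenicol, 10^6 cells went through FACS into 13 fluorescence bins, and each bin was sequenced by Illumina. Repression strength was defined as the top bin index plus one minus the read-weighted mean bin, divided by the unaltered operator's value. Averages included only members reaching ≥30 reads in all replicates with a CV ≤0.5.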
Sequence of UniProt P04483 (P04483 whole entry): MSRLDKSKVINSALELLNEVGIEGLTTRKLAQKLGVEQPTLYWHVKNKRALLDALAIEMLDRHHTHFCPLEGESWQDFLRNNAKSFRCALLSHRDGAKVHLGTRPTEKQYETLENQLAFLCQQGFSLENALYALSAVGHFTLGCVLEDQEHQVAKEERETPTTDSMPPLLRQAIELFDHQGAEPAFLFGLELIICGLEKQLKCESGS
As for TCCCCATGAGTGAAAGAGA, the TetR repression strength was determined as 0.42. Then TCCCATGTAGTGGAGGAGA, with 0.148; and TCCCTTATAGTCCGCGAGA, with 0.267. For TCCCATGAAGTTATCGAGA the value was 0.174; for TCCCCTATAGTTGTCGAGA, 0.19; for TCCCTAGCAGTGTTTGAGA, 0.369. For TCCCGATTAGTGTTTGAGA the value was 0.418. The sequence TCCCGGAGAGTAGAGGAGA registered a TetR repression strength of 0.153. For TCCCTTCGAGTTTCCGAGA the value was 0.257; for TCCCGGAGAGTATGAGAGA, 0.204.

TCCCACTAAGTGGTCGAGA: the TetR repression strength is 0.0268. Then TCCCGAAAAGTCAGCGAGA, with 0.0132; and TCCCTCGCAGTCAGCGAGA, with 0.355.

Turning to TCCCCTAAAGTCGAGGAGA, the TetR repression strength amounted to 0.11.

As for TCCCCGCCAGTGGACGAGA, the TetR repression strength worked out at 0.191. For TCCCCCCAAGTCGGCGAGA the value was 0.00669; for TCCCATTTAGTCGAAGAGA, 0.104. For TCCCGAATAGTGCAGGAGA the value was 0.25.

On to TCCCGCTGAGTAATTGAGA, for which the TetR repression strength came to 0.546.

As for TCCCGCCAAGTTGTTGAGA, the TetR repression strength stood at 0.0898. For TCCCGGGCAGTGTGTGAGA the value was 0.25; for TCCCAAATAGTTAGTGAGA, 0.625; for TCCCTTAAAGTTACGGAGA, 0.125. In the case of TCCCTTTAAGTTGGTGAGA, the TetR repression strength amounted to 0.335. On to TCCCCCGTAGTAAGCGAGA, for which the TetR repression strength was 0.26.

As for TCCCAATGAGTTGGCGAGA, the TetR repression strength turned out to be 0.124. Turning to TCCCCGACAGTTACGGAGA, the TetR repression strength was determined as 0.188.

For the sequence TCCCCGCGAGTTAGAGAGA, the TetR repression strength came to 0.399. Consider TCCCCTTAAGTTGTAGAGA, for which the TetR repression strength was determined as 0.424. Consider TCCCGGTTAGTACCCGAGA, for which the TetR repression strength was found to be 0.0883.

For the sequence TCCCGTGTAGTTAGTGAGA, the TetR repression strength is 0.308. For the sequence TCCCTGTTAGTGAAGGAGA, the TetR repression strength was 0.271. Then TCCCGTTCAGTGTTGGAGA, with 0.222. In turn, TCCCGACGAGTGGTTGAGA displayed a TetR repression strength of 0.162.

As for TCCCTGTGAGTAGACGAGA, the TetR repression strength was 0.167.

TCCCTATGAGTGACCGAGA registered a TetR repression strength of 0.604. Then TCCCGCAAAGTAAGGGAGA, with 0.198; and TCCCGTTGAGTATCGGAGA, with 0.133; and TCCCGGTGAGTTTGCGAGA, with 0.34.

Consider TCCCCGTAAGTTTGGGAGA, for which the TetR repression strength turned out to be 0.0954. For TCCCTATGAGTGGACGAGA the value was 0.404. Then TCCCTTTTAGTCTATGAGA, with 0.858. TCCCTGTGAGTCGCCGAGA: the TetR repression strength was determined as 0.133. TCCCTATTAGTCGTTGAGA registered a TetR repression strength of 0.26. For TCCCAGGTAGTGTATGAGA the value was 0.204; for TCCCAGATAGTCTGCGAGA, 0.303. For TCCCCCGAAGTAGTGGAGA the value was 0.308; for TCCCAAGGAGTGCGGGAGA, 0.119; for TCCCATCCAGTATAAGAGA, 0.298.

TCCCGGAAAGTGACCGAGA yielded a TetR repression strength of 0.203. For TCCCTAGTAGTGTCCGAGA the value was 0.266. On to TCCCTAGAAGTGTTAGAGA, for which the TetR repression strength was determined as 0.415.

For the sequence TCCCACGGAGTGTCGGAGA, the TetR repression strength was determined as 0.202. For TCCCGGGCAGTGCGTGAGA the value was 0.185; for TCCCGCTGAGTTTTCGAGA, 0.25; for TCCCATCCAGTTCTGGAGA, 0.484. Then TCCCGAGTAGTTGCCGAGA, with 0.132; and TCCCTTCGAGTGGGGGAGA, with 0.2.

TCCCCGAAAGTCTCAGAGA: the TetR repression strength was found to be 0.207. The sequence TCCCGCACAGTGTTCGAGA displayed a TetR repression strength of 0.143. Then TCCCTATAAGTGGTCGAGA, with 0.628; and TCCCATTAAGTTGGCGAGA, with 0.192; and TCCCGGGAAGTGGAGGAGA, with 0.065.

Sequence TCCCGTAGAGTGGAGGAGA registered a TetR repression strength of 0.172. In the case of TCCCTGGAAGTGACGGAGA, the TetR repression strength was determined as 0.422. For TCCCGAGTAGTGGGGGAGA the value was 0.254. For TCCCAATCAGTAGCCGAGA the value was 0.308. For TCCCAAGTAGTTTCTGAGA the value was 0.359; for TCCCCCGTAGTGATAGAGA, 0.214.

Regarding TCCCTTGCAGTCATGGAGA, the TetR repression strength is 0.115. For TCCCTGTCAGTTCGGGAGA the value was 0.244. For TCCCGTTAAGTCTGGGAGA the value was 0.125; for TCCCTAGCAGTCTGGGAGA, 0.426. Sequence TCCCCCTGAGTCAGGGAGA had a TetR repression strength of 0.29. For TCCCGGTCAGTAGTCGAGA the value was 0.665; for TCCCCACCAGTACCCGAGA, 0.403; for TCCCCCGGAGTCCTAGAGA, 0.301. For TCCCGCGTAGTGAGAGAGA the value was 0.526; for TCCCGTAGAGTATCGGAGA, 0.38; for TCCCAAGCAGTTAGGGAGA, 0.339. The sequence TCCCACAGAGTTGTTGAGA registered a TetR repression strength of 0.207.

TCCCAAGAAGTAGACGAGA displayed a TetR repression strength of 0.227. Then TCCCCGTTAGTGGGGGAGA, with 0.25; and TCCCTTTGAGTGTGCGAGA, with 0.218.

In the case of TCCCTCAGAGTGATAGAGA, the TetR repression strength stood at 0.342. In turn, TCCCGGAGAGTACTGGAGA showed a TetR repression strength of 0.171.

The sequence TCCCAAGAAGTGCGCGAGA registered a TetR repression strength of 0.258. The sequence TCCCTCGTAGTTGATGAGA returned a TetR repression strength of 0.253. For TCCCAGTTAGTGAGAGAGA the value was 0.315. Regarding TCCCAATCAGTGGGGGAGA, the TetR repression strength was 0.283.

Sequence TCCCTGGAAGTTGCTGAGA came in with a TetR repression strength of 0.271. Then TCCCCGAGAGTATATGAGA, with 0.207; and TCCCATGCAGTGCGCGAGA, with 0.202; and TCCCGTCGAGTGTTCGAGA, with 0.218.

For TCCCGTCCAGTGATTGAGA, the TetR repression strength amounted to 0.614.

With TCCCACGGAGTTGGGGAGA, the TetR repression strength was found to be 0.232.

With TCCCAAAGAGTGCAGGAGA, the TetR repression strength came to 0.187.

Consider TCCCCTGGAGTGCTTGAGA, for which the TetR repression strength worked out at 0.291.

In the case of TCCCGGTAAGTGATCGAGA, the TetR repression strength was 0.166. For TCCCGATCAGTGAACGAGA the value was 0.628; for TCCCGAATAGTGTATGAGA, 0.441.

Regarding TCCCAGCTAGTGACGGAGA, the TetR repression strength was found to be 0.226.

The values are drawn from a collection of fitness landscapes (doi:10.1038/s41467-024-54723-y).
